Here are results for 22 molecules from paper PMC12136788.

This is one part of the list.

Sequences and labels used below:
B1: chr2:179988524:179988525:-_ENSG00000187231_ENST00000428443|hu_hu|motif|central (ssRNA)
RNA: GGGAGUUCUACAGUCCGACGAUCUAAAGUUUGCUGAAUCGAUGCUCCAUCAGCUGGUGCUACAUCUACGCACAACAUCCCGGAUAAGCCAUCCAACUGCUGAGACAAAUCUUGGGCAACACCAUGAAAUUCAAGAGCUGCUUGCAACAGAGGAUUGAGCAUCA
B2: 41139090_41139210_2337_3pUTR_ENSMUSG00000036241_ENSMUST00000040008|mouse|control|control (ssRNA)
RNA: GGGAGUUCUACAGUCCGACGAUCCGAAUCUUAAGCCCUAUCCUUGAAGUCUGGCUUUACUUAGACAGUUUGCUAAACAAAACCCUCUUUCAAGUCUAGGAUGAAGCUACCGGAGCUCAGGCUUGGGGGAGCCACGUGUGACUGCAACAGAGGAUUGAGCAUCA
B3: chr11:78372574:78372575:-_ENSG00000149256_ENST00000278550|hu_mus|FALSE|FALSE (ssRNA)
RNA: GGGAGUUCUACAGUCCGACGAUCUUUCAUCUGUGUGUGUACGAGCUCGUAGGAGGGUUCCAUGGCAUCUGUGUCUGGCUUGGGAUAGCCAGGUAUCACGUUGUGCAGCUGGAAUCCAAAGGUGAGGAGCCAGCUGUUGACAUCCAACAGAGGAUUGAGCAUCA
B4: 29097236_29097356_835_3pUTR_ENSMUSG00000024782_ENSMUST00000025696|mouse|control|control (ssRNA)
RNA: GGGAGUUCUACAGUCCGACGAUCUCUUAGGAAAAGAGCUUUGAGAUACAGAGGCAAGAAGAGGAGAGGAGGCCCUGCCUCAUCCUGCCAGUUGCUGCCCUCUUCAGGGAGUAACAGAGGCCUUUUGGGUAGUUUCUGGAACUUCAACAGAGGAUUGAGCAUCA
B5: chr11:18503389:18503390:-_ENSG00000074319_ENST00000251968|hu_mus|motif|central (ssRNA)
RNA: GGGAGUUCUACAGUCCGACGAUCAUUUUCCAUUUUCUCCAGAGCAGAACUUAGUUCUUCAUCCUUCUUUUUCAAAAGUUCGGUGUUUUUAUCAACUUCAGCUACUUCUUGAUCUAAGCGGGUGACCAUCUCUUCCAGUUUCUGCAACAGAGGAUUGAGCAUCA
B6: 71491005_71491125_2181_3pUTR_ENSG00000131711_ENST00000296755|human|control|control (ssRNA)
RNA: GGGAGUUCUACAGUCCGACGAUCUCUUCAGGCUUUACCUUUGUUUCCUUUUUCACCGUCUUCUCCUUGGCAGCUUUGGGUUUGACAUCUGUGGCUUGCUUCUCAGCCACCUCGGCUUUCACUGGAGAUGGCUCUUCUUUGCUGCAACAGAGGAUUGAGCAUCA
B7: chr11:75578393:75578394:+_ENSMUSG00000020849_ENSMUST00000067664|mus_mus|FALSE|FALSE (ssRNA)
RNA: GGGAGUUCUACAGUCCGACGAUCCAAUACAGUAAUGCUGAAAAAGCCUCUAUGCAGUCCUGUUAGUGUCGUAAAGAACCUAAAGCUGGGACCAGUAAAAUCCACAGAAAUUCACUCUUGCCUUAAGAACUUCUGAAAACUGUUCAACAGAGGAUUGAGCAUCA
B8: chr15:23003119:23003120:+_ENSG00000068793_ENST00000560848|hu_mus|FALSE|FALSE (ssRNA)
RNA: GGGAGUUCUACAGUCCGACGAUCUUAUAAAGUUAAGCUUUCAGAUCAAAAGUAGGUUCAGACAUAAUGGAAAAUAGCCCCUAAAAAUUUCAAUAUAGUUUACAUAAAGACAAACAUGCCAUCAGUUACUGGGAUGCUGUGAGCCAACAGAGGAUUGAGCAUCA
B9: chr7:151048522:151048523:+_ENSG00000013374_ENST00000566856|hu_mus|hu_hu_hu_mus_True|1_8 (ssRNA)
RNA: GGGAGUUCUACAGUCCGACGAUCCUGUUUCUUAUUUAUUACGAUCUUGAUGUAAUUUUCUUGAAAUCCGAAAGUUUCAGCUAUUUGACACCUCAGGUCUCUACCAGUGACAUGCAAGCGGGUCUCCAACAAGUUUUUCCUAUCCAACAGAGGAUUGAGCAUCA
B10: chr14:102368134:102368135:+_ENSG00000078304_ENST00000445439|hu_hu|hu_hu_hu_mus_True|68_68 (ssRNA)
RNA: GGGAGUUCUACAGUCCGACGAUCAAGAGGCUCCAUGAUCUUCACAAACUCUGAUGGUUCAAUUACAUCUAAAAUCUCUUCUAAUUCAUUUAAGAACAUUACUUCUUUUGGACUGUGAGUCUUUGGCCAGUAUUUGAGAAGUGCCAACAGAGGAUUGAGCAUCA
B11: chr7:43916975:43916976:-_ENSG00000106608_ENST00000402306|hu_hu|FALSE|FALSE (ssRNA)
RNA: GGGAGUUCUACAGUCCGACGAUCCCCAAACAUGGUGUUGAGGAGUGUGGACUUGCCCGUGCCUGGCACCCCGACGGUUGACAGAACCACCAGCCUUGACCGUCUCUCCAGUCGGACGUGCAGCUCCUUCAGGAGCCCUGUGACCAACAGAGGAUUGAGCAUCA
B12: chr5:31825596:31825597:-_ENSMUSG00000053134_ENSMUST00000065388|mus_mus|FALSE|FALSE (ssRNA)
RNA: GGGAGUUCUACAGUCCGACGAUCUAGGAAGUCUAGGCAGUUCCCACAUAAGAAGCAAGCUAAGAUCACUUUAAAAAGGUGCUAGCAAAACUCUAGGACAGACAAUACUCUCCCGCCCUGCCCCAGGAGUGGUAUACGCGGCUGCAACAGAGGAUUGAGCAUCA
B13: chr2:78760142:78760143:+_ENSMUSG00000027011_ENSMUST00000028398|mus_hu|FALSE|FALSE (ssRNA)
RNA: GGGAGUUCUACAGUCCGACGAUCGGUCCACUGUCUGGCUAUCCUGUCGUGUUCUGCUCUGUUGGUCAAAUACUGAGUGGCUAUGCUUCCAACCAGAGGAUCCGCAGGGUUGCAGUCUGUCAAAAGGGAACAAAUAGACAGCAACAACAGAGGAUUGAGCAUCA
B14: 19544922_19545042_2767_3pUTR_ENSMUSG00000030411_ENSMUST00000032571|mouse|control|control (ssRNA)
RNA: GGGAGUUCUACAGUCCGACGAUCCUUCAUCCCUAUGAUGCCACAGGAAGUGACCUCGAGAUUCCACAGGAAGUACAUGCCUCUGCCAUCUACAGAAGCGACCUUUGAGGCCUUUUGUUGGGACCUCACAGGAAAUGAUUUUCUCAACAGAGGAUUGAGCAUCA
B15: chr12:57883053:57883054:+_ENSG00000166986_ENST00000262027|hu_hu|FALSE|FALSE (ssRNA)
RNA: GGGAGUUCUACAGUCCGACGAUCAGUGAGGUCAUCUUGCUCCCAGCCAGAUAACAAAAAAAAAUAUCGGCAGAUUGCACUAGUGGAGAAGAGGUAGUUGCCGCUAUCCAGCUGCAAGACAGGGACCUUAGGCCGGGUCAGGAACAACAGAGGAUUGAGCAUCA
B16: 38430061_38430181_797_CDS_ENSMUSG00000037458_ENSMUST00000065308|mouse|control|control (ssRNA)
RNA: GGGAGUUCUACAGUCCGACGAUCACAAGCAAACCCAGUUCCAAGAGCUGCCAAGAUCUCAAGCACGGCUGGAGUGGAGUUGCACUUCACCGUGUAAAACGGCUUUAUCUGAGCCACCACGGUCUGCCACUGACUGUGCUUCUUCAACAGAGGAUUGAGCAUCA
B17: chr7:141438946:141438947:+_ENSG00000106028_ENST00000265304|hu_mus|hu_hu_hu_mus_True|8_58 (ssRNA)
RNA: GGGAGUUCUACAGUCCGACGAUCGACGAAAUACCUGUAACACAGGUCUUCGAAACAUGGCUUCUGUUUUUCUUACAGUCUAAUCUUUAGGCUUUUCCUAAAGGAAAGAAAGAAAAGAGAAAAAUGAGCAGGGGAUCAACUACACAACAGAGGAUUGAGCAUCA
B18: chr1:109605286:109605287:-_ENSG00000197780_ENST00000461096|hu_mus|hu_hu_hu_mus_True|8_38 (ssRNA)
RNA: GGGAGUUCUACAGUCCGACGAUCAAGUUUCAGAGUAACAUUCAGUAACCUCUUUAAAUGCAAUUAUCCUUAUUAUAAGCUAAGCAGAAUAAUAAUUUAAUACAUAGAGUGAACUACACACAAAGCCGUGUAUUCAGAAAUGGUCAACAGAGGAUUGAGCAUCA
B19: chr5:162943533:162943534:+_ENSG00000038274_ENST00000321757|hu_hu|FALSE|FALSE (ssRNA)
RNA: GGGAGUUCUACAGUCCGACGAUCAGGAAUCCUCAAAACAGCAGCUCCUAGAUUGUUCUCCAGGACAGCCUUUUCUCCAUCUAAUUUUGUUUUGCCAUACAAAUUUAGGGGAGCUGGUAUGUCUUCCUCUCUGUAAGGUGGAUUCAACAGAGGAUUGAGCAUCA
B20: 32640894_32641014_2729_CDS_ENSG00000115760_ENST00000421745|human|control|control (ssRNA)
RNA: GGGAGUUCUACAGUCCGACGAUCUGAGGUUAACUGCAUGUCCUCAAUAGGUUCCUCACAGUCAUCCUCUCGAUUAUCCAAUAUAUCGGGUGGAAGCAAAAUGAGCGAGGUAAUUGUGUCCUGGGGAUCUUUGAUAUGUUGUAUCAACAGAGGAUUGAGCAUCA
B21: chr4:99997923:99997924:-_ENSG00000197894_ENST00000296412|hu_mus|FALSE|FALSE (ssRNA)
RNA: GGGAGUUCUACAGUCCGACGAUCAGCCCCGUAGCCAGUUGAAAUACCACAGCCGAGAAGGCAGACUUUAUCCAAAGGGGCCGAAGGAUCGAUUUUAGCAACAGAGAUGUCAGCCACAACUGUGUACUCGGAAAAUGUGCUAGUCAACAGAGGAUUGAGCAUCA
B22: chr9:32553822:32553823:-_ENSG00000165264_ENST00000350021|hu_mus|FALSE|FALSE (ssRNA)
RNA: GGGAGUUCUACAGUCCGACGAUCUCUGAGAAUAAGCUUUAUUAAUUACUUUUCCAGGAAACAGAUUCAGUAAAUACAGCACUUUAGGAACAUACUUGUGCUGUUACACAAGUCUGUUAAGUUUUUAAGGACUCUUCAAUGAUGCAACAGAGGAUUGAGCAUCA

This assay addresses T1, UNK ZnF1-3 (human, UniProt Q9C0B0 31-174).
T1 sequence: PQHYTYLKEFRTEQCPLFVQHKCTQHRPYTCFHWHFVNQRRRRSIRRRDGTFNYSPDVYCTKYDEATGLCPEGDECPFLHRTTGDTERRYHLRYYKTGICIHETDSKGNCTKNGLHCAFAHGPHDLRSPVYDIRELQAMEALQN
As to the kind of experiment: nsRBNS (natural sequence RNA bind-n-seq); RBNS binding buffer (assumed for nsRBNS): 25 mM Tris pH 7.5, 150 mM KCl, 3 mM MgCl2, 0.01% Triton X-100, 500 ug/ml BSA, 20 U/ml SUPERase-In, 4 C; UNK is unkempt and MSI1 is Musashi-1; names of the RNAs are library labels; protein concentration not given here; high values mean tight binding.
B1 yielded a binding signal of 1.16 enrichment R.

With B2, the binding signal stood at 0.584 enrichment R.

Molecule B3 displayed a binding signal of 0.795 enrichment R.

As for B4, the binding signal was 0.818 enrichment R.

Regarding B5, the binding signal was found to be 0.432 enrichment R.

With B6, the binding signal stood at 0.281 enrichment R.

Take B7: the binding signal is 1.17 enrichment R.

B8 had a binding signal of 2.11 enrichment R.

B9: the binding signal came to 0.695 enrichment R.

For the molecule B10, the binding signal was determined as 0.834 enrichment R.

In turn, B11 registered a binding signal of 1.28 enrichment R.

With B12, the binding signal came out at 1.48 enrichment R.

Turning to B13, the binding signal was determined as 1.53 enrichment R.

Consider B14, for which the binding signal came out at 0.488 enrichment R.

Molecule B15 yielded a binding signal of 1.77 enrichment R.

Turning to B16, the binding signal was 0.876 enrichment R.

As for B17, the binding signal is 0.57 enrichment R.

For the molecule B18, the binding signal amounted to 0.647 enrichment R.

In the case of B19, the binding signal was 0.852 enrichment R.

In turn, B20 gave a binding signal of 0.573 enrichment R.

Turning to B21, the binding signal turned out to be 2.35 enrichment R.

B22 returned a binding signal of 0.696 enrichment R.
